Assay results reported in ChEMBL document CHEMBL4888484, “Replenishing the malaria drug discovery pipeline: Screening and hit evaluation of the MMV Hit Generation Library 1 (HGL1) against asexual blood stage Plasmodium falciparum ,using a nano luciferase reporter read-out” (2022).
Hit rate of the full screen: of about 150,000 compounds, about 540 (0.36%) showed an effect of 50% or more. The list shows a part of the results.

Test system: Plasmodium falciparum
Assay: Primary screen in NF54 nanoGlo assay, in single point, at 2uM, 72h; a lower Z score goes with more inhibition
Format: functional, Erythrocyte
Conditions: timepoint 72 hour

SMILES | % Inhibition | Z score
CC(C)[C@H](N)c1nc(Cn2cnc3ccccc32)no1 | -1% | 0.12
COc1cccc(-c2nc(NC3CCCCC3)c3ccccc3n2)c1O | 5% | -0.65
Cc1cc(O[C@H]2CCN(S(=O)(=O)CCN3C(=O)CCCC3=O)C2)nc(C)n1 | 4% | -0.69
CCc1ccc(S(=O)(=O)C2CS(=O)(=O)CC2N2CCN(Cc3ccccc3)CC2)cc1 (stereo unspecified) | -4% | 0.5
Cc1nc2c([nH]1)CN(C(=O)NCCc1nc(C)c3c(n1)CCCC3)CC2 | -13% | 1.99
CN1CCCCC[C@H]1C(=O)N1CCC2(CCCC2)C1 | -6% | 1.16
O=C(c1cc(O)ccn1)N(CC(F)F)CC1CCC1 | -3% | 0.31
Cc1ccnc(C(=O)N[C@@]2(C)CCCOC2)n1 | -2% | 0.33
COc1cccc(NC(=O)N[C@H]2CO[C@@H](CN3CCC(C)CC3)[C@@H]2O)c1 | 13% | -1.56
O=C1CCCCN1CCC(=O)N1CC[C@H](Cc2ccc(=O)[nH]c2)C1 | -7% | 0.85
Cc1ccccc1CNC(=O)[C@@]1(C)CCCN(S(=O)(=O)c2ccc(C3CCCCC3)cc2)C1 | 9% | -1.45
O=C(c1c(F)cccc1Cl)N1CC(S(=O)(=O)Cc2ccco2)C1 | -12% | 1.58
CCn1ncc(C)c1NC(=O)c1occc1C | -8% | 0.74
CCc1nc(C(=O)NC(C)C2CCCO2)nn1-c1c(Cl)cccc1Cl (stereo unspecified) | -2% | 0.24
Cc1nn(C)c(=O)c(-c2nnn(Cc3noc(C(C)C)n3)n2)c1C | 3% | -0.38
Cc1ccc2nc(-c3ccco3)nc(N3CCN(S(=O)(=O)c4ccccc4)CC3)c2c1 | 0% | 0
CC(C)Cc1ccc(CN2CC[C@H](NC(=O)c3ccncc3)[C@@H](O)C2)cc1 | -13% | 2.4
CCc1cc(C(=O)N2CCC[C@@]3(CCC(=O)N(Cc4cccnc4)C3)C2)no1 | -11% | 1.24
CCN(CC)S(=O)(=O)c1ccc(C(C#N)C(=O)C2CC2C)nc1 (stereo unspecified) | -9% | 1.25
COCC(=O)N1CCC[C@H](c2nnc3n2CCN(C(=O)c2ccc(OC)cc2C)C3)C1 | -14% | 2.74
C[C@@H](C(=O)OC(C)(C)C)c1nc(-c2cnccn2)no1 | 16% | -1.91
C=C[C@H]1OCC[C@@H]1NC(=O)C(C)(C)c1cccnc1 | 9% | -1.14

SMILES | % Inhibition | Z score
C[C@@H](CCCC(C)(C)O)NC(=O)c1nccn1C | -6% | 0.93
CN(CC(O)COCc1ccc2c(c1)OCO2)CC1CCCO1 (stereo unspecified) | -8% | 0.94
Cc1ncc(-c2nc(CCC(F)(F)F)no2)c(N)n1 | -4% | 0.51
c1ccc(-c2cn3c4ccccc4nc3n2CCCN2CCCC2)cc1 | 1% | -0.14
Cc1cc(S(=O)(=O)N2Cc3cncnc3C2)ccc1F | -4% | 0.66
OCc1ccc(CNC2CCOC2c2ccccc2)o1 (stereo unspecified) | -11% | 0.97
O=C1CCC(=O)N1CCCNc1cc(C(F)F)ncn1 | -2% | 0.32
CC1CCCC(N(CC(=O)Nc2ccc(C(N)=O)cc2)Cc2ccc3c(c2)OCO3)C1C (stereo unspecified) | 5% | -0.83
COc1cccc(-c2nc(-c3nnn4c3CO[C@H](c3ccccc3Cl)C4)no2)c1OC | -12% | 1.87
COc1ccc([C@@]2(c3nc(-c4cccnn4)no3)CC2(C)C)cc1 | -3% | 0.53
CC(C)C1(c2ccccc2)CN(C(=O)C[C@H](C)n2ccnc2)C1 | -14% | 2.65
Cc1ncc2c(n1)CCC[C@@H]2Nc1ccc(Br)cn1 | -11% | 1.16
CCCN(CC#Cc1ccccc1)C[C@H](O)CO | -10% | 1.97
Cc1ccc(S(=O)(=O)N2CCN(C(=O)NCc3ccco3)CC2)cc1 | 9% | -1.2
Cc1c(Cl)ccc2sc(N(Cc3ccccn3)C(=O)CN3C(=O)CCC3=O)nc12 | -13% | 1.6
c1cc(CN2CC[C@@]3(CCCN(CC4CCC4)C3)C2)n(-c2nccs2)c1 | -14% | 2.12
c1cnc(N2CCC(N[C@H]3CCCc4occc43)CC2)nc1 | -3% | 0.38
Cc1ccc(C)c(NC(=O)CNC(=O)N2CC(=O)Nc3ccccc32)c1 | 35% | -3.99
CCc1noc(C)c1C(=O)N(Cc1ccc2c(c1)CCO2)C1CCCC1 | -11% | 1.5
Cc1c(C)n(Cc2ccco2)c2ncnc(N3CCC(C(=O)O)CC3)c12 | -23% | 2.15
C[C@H](NS(=O)(=O)c1cccnc1)c1ccc(-c2cccnc2)cc1 | -1% | 0.12
